The source of these data is PubChem BioAssay AID1346428 (National Center for Advancing Translational Sciences (NCATS), 2018).

“And” between values parts separate entries of the source, which are not always exact repeats. Equal values may be shown once. Hit rate of the full screen: of about 48,000 compounds, about 1,200 (2.5%) were called active. About 2% were inconclusive and are not listed.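 How the source made its calls: active means activation of at least 60% and not above a set upper limit (about 1 call in 100 departs from these limits); inconclusive means activation of 40% to 60%, or above that upper limit; inactive means activation under 40%.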 The list shows a part of the results.

The target of the experiment is Probable G-protein coupled receptor 32 (Homo sapiens) (UniProt O75388). Nature of the experiment: qHTS for Agonists of Human Resolvin D1 Receptor DRV1. Further: 0% is about no effect. Particulars: CHO-K1 GPR32 beta-arrestin PathHunter luminescence, 90 min; at 76.9 µM; hits give high values; zero percent set by DMSO-only wells. Summed up: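 Readings come from a cell-based beta-arrestin complementation format: CHO-K1 GPR32 stable cells (2,500/well) treated 90 min with compounds, then beta-Gal substrate added for 1 h before chemiluminescence imaging.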
Chain of UniProt O75388 (O75388 whole entry, looked up): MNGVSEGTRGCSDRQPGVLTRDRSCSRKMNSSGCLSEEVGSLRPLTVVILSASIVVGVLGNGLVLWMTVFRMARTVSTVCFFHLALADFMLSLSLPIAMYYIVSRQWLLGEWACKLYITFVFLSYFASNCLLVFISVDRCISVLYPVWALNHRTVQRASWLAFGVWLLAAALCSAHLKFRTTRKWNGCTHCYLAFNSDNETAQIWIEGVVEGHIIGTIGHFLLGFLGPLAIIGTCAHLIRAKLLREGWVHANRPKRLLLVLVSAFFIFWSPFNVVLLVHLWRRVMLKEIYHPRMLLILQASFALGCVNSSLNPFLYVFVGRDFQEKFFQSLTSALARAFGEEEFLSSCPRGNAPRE
(Quantitative high-throughput screening tests each substance at several concentrations.)
Consider `CNS(=O)(=O)c1cn(CC(=O)Nc2ccc(OC)cc2OC)cc1S(=O)(=O)NC`, for which the activation is inactive: -4.52%. `CCC(CC)C(=O)Nc1cc(-c2ccccc2F)nn1-c1ccccc1`: the activation is inactive: -18.1%. Next, `Cc1ccc(/C=C/c2onc(C)c2S(=O)(=O)N2CCC(C(=O)Nc3ccc(Br)c(C)c3)CC2)cc1`: inactive: -7.75%; `Cc1csc2nc(-c3ccc(NS(=O)(=O)c4cc(F)ccc4F)cc3)cn12`: inactive: 0.0851%. Next, `Cc1ccccc1/C=C(\C#N)c1nc(-c2ccc(Cl)cc2)cs1`: inactive: 1.54%. Take `CCN(CC)C(=O)Cn1c(=O)n(-c2ccccc2)c(=O)c2c3c(sc21)CCC3`: the activation was inactive: -0.418%. Next, `COc1ccccc1C(=O)Nc1ccc(C(=O)OCc2cc(=O)n3nc(C)sc3n2)cc1`: inactive: -4.58%; `CN(C(=O)c1ccc2c(Cl)c3c(nc2c1)CCC3)c1ccccc1F`: inactive: -3.98%. As for `COc1ccc(CCN2C(=O)CN(C3CCCCCC3)C(=O)C2c2ccc(OC(C)C)c(OC)c2)cc1OC` (stereo not drawn), the figure is inactive: -17.2%; as for `Cc1ccc(CNC(=O)c2nnc(Cc3ccc(Cl)cc3)o2)cc1`, inactive: 4.51%.

As to `Cc1ccc(NC(=O)Cn2c(-c3cncs3)nc3ccccc32)c(Br)c1`, the activation was inactive: -4.17%. As for `Cc1ccc(CNC(=O)CN2C(=O)C3(SCC(=O)N3c3ccc(F)cc3)c3ccccc32)cc1` (stereo not drawn), the figure is inactive: 3.79%. As for `Cc1c(Cl)cccc1Nc1nc2ccc(C(=O)c3ccccc3)cc2n2cnnc12`, the figure is inactive: -23.3%. As for `CC1CN(C(=O)N2CCC(C(=O)NCCCc3ccccc3)CC2)c2ccccc2O1` (stereo not drawn), the figure is inactive: -6.2%; as for `CC(=O)N1CCc2c(sc3c2c(=O)n(Cc2ccccc2)c(=O)n3Cc2cc(C)ccc2C)C1`, inactive: -1.31%; as for `COc1ccc2c(c1)Cc1sc(NC(=O)c3cccc(Br)c3)nc1-2`, inactive: -19%. Take `CCOc1ccc(Nc2oc(/C=C/c3cccc(OC)c3)nc2C#N)cc1`: the activation was inactive: 35.6%.

Regarding `CCCCCn1c(CCNC(=O)c2cccc(C)c2)nc2ccccc21`, the activation is inactive: 11.2%.

As to `Cc1ccc(-c2c(C(=O)NCCc3ccccc3)oc(=O)c3ccccc23)cc1`, the activation is inactive: -31.9%.

In the case of `COc1ccc(-c2cc3ccc(O)c(CN4CCCC4)c3oc2=O)cc1`, the activation was inactive: 7.05%. As for `CCCSc1nc(-c2ccccc2)[nH]c1S(=O)(=O)c1ccc(C)cc1`, the figure is inactive: 10.9%; as for `COc1ccc(-c2n[nH]c3c2cnc2ccc(F)cc23)cc1`, inactive: 14.5%; as for `CCn1cc(C(=O)NCCCOC)c(=O)c2cc(S(=O)(=O)N3CCc4ccccc4C3)ccc21`, inactive: 17.1%. For the molecule `Cc1cc(C)c2oc(-c3ccc(Cl)c(NC(=O)c4cccs4)c3)nc2c1`, the activation was inactive: -7.75%. As for `COc1ccc2c(c1)c1c(c(=O)n(Cc3ccccc3)c(=O)n1Cc1cccc(Cl)c1)n2C`, the figure is inactive: -37.7%; as for `COc1ccccc1NC(=O)c1cnc(SCC(=O)N2CCOCC2)n(C)c1=O`, inactive: 0.397%. As for `O=c1oc2ccc3ccccc3c2cc1-c1nnc(Nc2ccccc2F)s1`, the figure is inactive: -6.98%; as for `Cc1cc(C)cc(NC(=O)C2CCN(S(=O)(=O)c3cn(C)cn3)CC2)c1`, inactive: -9.12%; as for `CCOC(=O)C1CCCN(CC(=O)Nc2cc(C)c3c(=O)oc4ccccc4c3n2)C1` (stereo not drawn), inactive: -11.1%. Regarding `CCc1cccc(C)c1NC(=O)Cn1nnc(-c2nc(-c3ccccc3F)no2)c1N`, the activation is inactive: 13.3%.

As to `Cc1cc2c(cc1NS(=O)(=O)c1cccc(C#N)c1)n(C)c(=O)c(=O)n2C`, the activation is inactive: 3.66%. Regarding `Cc1ccc(=O)n(-c2ccccc2)c1`, the activation was inactive: -10.9% and inactive: -5.64%. Next, `CCCOc1ccc(C2C(=O)N(C3CCC(C)CC3)CC(=O)N2Cc2cccc(OC)c2)cc1OC` (stereo not drawn): inactive: -12.5%; `CC1=Nc2cc(C(=O)N3CCC(C)CC3)ccc2Sc2ccc(Cl)cc21`: inactive: 18.9%. In the case of `COc1ccc(NS(=O)(=O)c2cc3c(cc2C)N(C(C)=O)CCO3)cc1`, the activation is inactive: 2.64%. Next, `Cn1cc(S(=O)(=O)N2CCCCCC2)cc1C(=O)Nc1ccc(Cl)c(C(F)(F)F)c1`: inactive: 36.5%; `O=C1c2ccccc2CCc2ccccc21`: inactive: 10.7%; `CCc1ccc(NC(=O)C2CCCN2S(=O)(=O)c2ccc3c(c2)CCCC(=O)N3)cc1` (stereo not drawn): inactive: 6.73%.

`COc1ccc(CCNC(=O)c2ccc(Cn3c(=O)c4ccccc4n(Cc4cccc(F)c4)c3=O)cc2)cc1OC`: the activation is inactive: -0.102%. As for `Cc1ccc(CNC(=O)c2ccc(Cn3c(=O)c4ccccc4n(CC(=O)Nc4c(C)cc(C)cc4C)c3=O)cc2)cc1`, the figure is inactive: -10.8%; as for `O=C(NCC(c1cccs1)S(=O)(=O)c1cccs1)c1cccc(F)c1` (stereo not drawn), inactive: 43.5%.

As for `COc1ccc(OC)c(-n2nnc(-c3nc(-c4cc(OC)c(OC)c(OC)c4)no3)c2C)c1`, the activation is inactive: -3.77%. Next, `c1cnc(N2CCN(c3ncc4c(n3)CCNC4)CC2)nc1`: inactive: 6.76%; `O=c1oc2c3c(ccc2c2ccccc12)OCN(Cc1ccc(Cl)cc1)C3`: inactive: -62.5%.

Take `COc1ccc(-c2nc3ccccc3n3c(-c4ccccc4)c4c(=O)n(C)c(=O)n(C)c4c23)cc1OC`: the activation is inactive: 2.24%.

Consider `COc1cc2c(cc1OC)C(COc1ccc3c(C)cc(=O)oc3c1)N(C(=O)c1ccccc1C)CC2` (stereo not drawn), for which the activation is inactive: -1.45%. Next, `COc1ccc(-n2nnnc2C2CCN(S(=O)(=O)c3ccc(C)cc3)CC2)cc1`: inactive: -14.1%; `COCCn1c(=O)[nH]c2cc(C(=O)N3CCN(c4ccccc4)CC3)ccc2c1=O`: inactive: 41.7%; `CN1C(=O)c2ccccc2Sc2ccc(NC(=O)N3CCN(c4ccccc4)CC3)cc21`: inactive: 0.0031%. In the case of `CC(=O)N1c2ccccc2C(C)(c2ccc(C)cc2)CC1(C)C` (stereo not drawn), the activation is inactive: 42.8%.

Consider `O=C(NCc1ccccc1)c1cccn1-c1nnc(N2CCCC2)s1`, for which the activation was inactive: 1.85%. Next, `CCOc1ccc(CNC(=O)c2nn(-c3ccc(OC)cc3)c(=O)c3c2c2ccccc2n3C)cc1`: inactive: -10.7%. Next, `CC(=O)N1CCc2cc(S(=O)(=O)NC(Cc3ccccc3)C(=O)Nc3cc(C)ccc3C)ccc21` (stereo not drawn): inactive: -13.6%.
